Consider 84 variants from the RNAGym collection of RNA variant scans (doi:10.1093/nar/gkz1192).

Read counts are not given, so values of variants with three or more changes are uncertain.

B1: CPEB3 Ribozyme (parent)
chain: UAACAGGGGGCCACAGCAGAAGCGUUCACGUCGCAGCCCCUGUCAGAUUCUGGUGAAUCUGCGAAUUCUGCUGUAUAUCUC

The variants in the data set derive from B1. Put plainly: self-cleavage, relative activity (ratio to wild type); higher = more cleavage; in vitro, sequencing. In outline: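 CPEB3 self-cleaving ribozyme mutant libraries were made by rounds of error-prone PCR, barcoded, and transcribed in vitro with T7 RNA polymerase for 5 hours at 37°C. Cleavage occurred during transcription and a 15 min DNase I step before EDTA stop. RNAs were reverse transcribed with template switching and Illumina-sequenced, with DNA sequencing mapping barcodes to variants. Relative activity is the variant's cleaved/total read fraction divided by wild type's (minimum 5 reads), averaged across three batches.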
Regarding C29G A57G A75U, the self-cleavage was 0.11.

Turning to A28U U31A A64G C71G, the self-cleavage came to 0.06.

With A28U A45G U60A U67A U69A, the self-cleavage stood at 0.11.

For A28G U72C U74A A75C C79U, the self-cleavage was found to be 1.09.

A28U C32U C44U U49C G63A A65G U67C: the self-cleavage stood at 0.09.

For the variant C29G A35G U41C A64G U78C, the self-cleavage turned out to be 0.26.

Regarding A28U G33A U41C G63A A64U U72C, the self-cleavage was 0.06.

Turning to C29U A35G U54C A57G, the self-cleavage worked out at 1.1.

For the variant C29A U31C U54A U60A U80C, the self-cleavage was determined as 0.13.

Consider A28U G33A A77U, for which the self-cleavage was found to be 0.05.

Regarding C29G U41C U51A C81G, the self-cleavage worked out at 0.12.

Consider A28G U72C U78A, for which the self-cleavage was found to be 0.68.

For A28U U41C C68A U72A, the self-cleavage was found to be 0.11.

On to A28U U41C U51A U67A U72A U80C, for which the self-cleavage is 0.29.

For A28U U49C A57U U80C, the self-cleavage turned out to be 0.33.

Regarding A28U U43C A64G U80C, the self-cleavage came out at 0.46.

In the case of C29G U49C U54A U67C G73A, the self-cleavage worked out at 0.06.

Take A28U C29A C79U: the self-cleavage came out at 0.26.

Turning to A28U U41C U72A, the self-cleavage worked out at 0.85.

Take C29U A35G A45G U72G: the self-cleavage is 0.97.

In the case of A28U A35G U54A, the self-cleavage is 1.26.

As to A28U A57G U78C, the self-cleavage turned out to be 0.41.

As to A28U U41C U67A U69C, the self-cleavage was determined as 0.36.

On to A28U A45G U49C U58C U80C, for which the self-cleavage was 0.05.

With C29A G42A U48C U51A U76C U80C, the self-cleavage came to 0.08.

For A28U U31A A35G U48C, the self-cleavage was found to be 0.5.

In the case of A28U G46A A64U, the self-cleavage was 0.19.

Take C29G U60A U72A: the self-cleavage was 0.1.

In the case of A28U U49C A57G U66A, the self-cleavage was 0.19.

Turning to A28U U48C A64G U76A, the self-cleavage came to 0.4.

As to A28U A35G G63C A64G U80C, the self-cleavage was 1.12.

C29U A35G U60C A65G: the self-cleavage was 0.16.

As to C29G U41C U48C U51C A64G U72A, the self-cleavage turned out to be 0.08.

Regarding A28U U31A C32A U76C, the self-cleavage was found to be 0.22.

For C29A A57U A75G, the self-cleavage amounted to 0.13.

As to A28U A47C C79A, the self-cleavage was 0.26.

For the variant C29U A35G C40U U41A U51C U54A A56G, the self-cleavage worked out at 0.11.

As to C29U A47U A57G U67C A75G, the self-cleavage amounted to 0.1.

For A28U C38A U67A U72A U80C, the self-cleavage was found to be 0.27.

Consider C29U A56G U69G, for which the self-cleavage came to 0.22.

C29A C62U U66C U69C U78C: the self-cleavage worked out at 0.08.

Consider C29A U43C U69A A77G U78C, for which the self-cleavage was found to be 0.1.

On to A28U C44G U72A, for which the self-cleavage turned out to be 0.14.

For the variant A28G U72C U80A, the self-cleavage amounted to 0.75.

For the variant A28U U41C U74A, the self-cleavage worked out at 0.64.

Consider A28U A35U A56U A57U U72A, for which the self-cleavage came to 0.14.

For C29A U69A U80C, the self-cleavage is 0.12.

In the case of A28U G30C A47G U54C G63U, the self-cleavage was 0.19.

A28U U48C U80C: the self-cleavage is 0.56.

Take A28U U60A A64U: the self-cleavage was 0.26.

Take A28U C34U A45G U48A: the self-cleavage turned out to be 0.04.

As for C29A A45G U51C, the self-cleavage was 0.2.

Take A28U A47U A75U A77G: the self-cleavage worked out at 0.19.

As for A28U U31A U54A A64G, the self-cleavage was determined as 0.19.

For the variant C29A C34U U66C, the self-cleavage is 0.42.

With C29U A35G A57U, the self-cleavage was 0.35.

For the variant A28U U41C A57G, the self-cleavage worked out at 0.77.

A28U U43C G46U U58C: the self-cleavage came to 0.13.

Regarding A28G U72C A77G, the self-cleavage is 0.83.

For C29A A47U U78C, the self-cleavage is 0.2.

With C29G A57U U60A, the self-cleavage is 0.04.

On to C29A A35U A47G, for which the self-cleavage was 0.1.

Turning to A28U U43A U72C, the self-cleavage was 0.71.

Turning to A28U U49A U51A A57U, the self-cleavage turned out to be 0.08.

Take A28U U66C U69C: the self-cleavage is 0.19.

With A28U U41C U58A U60C A65G A75G A77C, the self-cleavage worked out at 0.05.

Take A28U U41C C62U C71A: the self-cleavage worked out at 0.09.

For A28U U48C A77U, the self-cleavage worked out at 0.36.

Regarding A28U A45G U80C, the self-cleavage came out at 0.82.

Turning to A28U U48C A64G U69C, the self-cleavage is 0.1.

In the case of C29G A35C C50G U54A U58A U72A, the self-cleavage came to 0.13.

A28U G36U A64G: the self-cleavage was 0.17.

Consider A28U A65C G73C, for which the self-cleavage was determined as 0.11.

A28U C29G A35U U72A: the self-cleavage was 0.17.

A28U C32A A47U A56U: the self-cleavage turned out to be 0.14.

Consider A28U A57G U76A C79A, for which the self-cleavage amounted to 0.86.

In the case of A28U A45G A64G U69A U76C A77G, the self-cleavage was 0.13.

Regarding A28U C29U A75U, the self-cleavage is 0.43.

As to A28U A56U U72A, the self-cleavage came to 0.12.

A28U C39G C40U U69A U78C: the self-cleavage worked out at 0.04.

Take A28U U41C A45G A64U: the self-cleavage is 0.12.

Regarding A28U G30U A45U U51C A64G A77G, the self-cleavage came out at 0.06.

Take C29U A35G U60C: the self-cleavage worked out at 0.38.

Consider A28U U48C A65U C68U U69A U74G, for which the self-cleavage came to 0.06.
